Consider one molecule from publication PMC3923899, “Glypican-1 regulates myoblast response to HGF via Met in a lipid raft-dependent mechanism: effect on migration of skeletal muscle precursor cells” (Skeletal Muscle, 2014).

This assay addresses T1, rat glypican-1 containing a FLAG epitope in its amino terminus (F-Gly) (rat, UniProt P35053 24-530, heparan sulfate chains (HSPG); glycosylphosphatidylinositol anchor; positions not given).
T1 construct: glypican-1, rat; The heparan sulfate chains were still on the protein during the immunoprecipitation; heparitinase and chondroitinase ABC were applied to the beads only afterwards; source: C2C12 myoblasts, transiently transfected (pcDNA3.0), in cell extract (RIPA buffer); not shown: FLAG, N-terminal, kept
T1 sequence (looked up): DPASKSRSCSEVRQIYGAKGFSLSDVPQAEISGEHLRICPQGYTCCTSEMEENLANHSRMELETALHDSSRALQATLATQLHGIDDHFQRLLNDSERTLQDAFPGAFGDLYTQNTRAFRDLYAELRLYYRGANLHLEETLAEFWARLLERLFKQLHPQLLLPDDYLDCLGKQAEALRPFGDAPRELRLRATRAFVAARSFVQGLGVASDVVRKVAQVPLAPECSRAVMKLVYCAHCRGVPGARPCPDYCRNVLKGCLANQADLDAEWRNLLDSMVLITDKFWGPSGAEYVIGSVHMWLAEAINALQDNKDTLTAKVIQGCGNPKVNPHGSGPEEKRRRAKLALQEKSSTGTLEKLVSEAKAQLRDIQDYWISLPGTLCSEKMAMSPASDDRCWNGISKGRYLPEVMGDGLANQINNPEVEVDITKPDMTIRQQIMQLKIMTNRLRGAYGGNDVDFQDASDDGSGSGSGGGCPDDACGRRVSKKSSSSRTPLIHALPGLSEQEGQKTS
Kind of assay: co-IP; 20 ng/ml [125I]HGF added for 5 minutes to C2C12 myoblasts transfected with F-Gly or F-GlySyn; extracts in RIPA buffer precipitated with anti-FLAG M2 Affinity Gel, 3 hours at 4°C; [125I]HGF detected by phosphorimager. As to conditions: one partner purified.

B1: [125I]-labelled hepatocyte growth factor (HGF) (ligand)
chain: not shown
modifications: 125I label (chloramine T method)
notes: hepatocyte growth factor; also called HFG; source: bought: R&D Systems (carrier-free), radiolabeled with Na125I
As for B1, the “fold co-immunoprecipitated against F-GlySyn” value was approximately 4 fold.
